This note sets out measurements from publication PMC12136788.

First the molecules themselves.
T1: UNK ZnF1-6 (called full-length) (human, UniProt Q9C0B0 30-357)
T1 sequence: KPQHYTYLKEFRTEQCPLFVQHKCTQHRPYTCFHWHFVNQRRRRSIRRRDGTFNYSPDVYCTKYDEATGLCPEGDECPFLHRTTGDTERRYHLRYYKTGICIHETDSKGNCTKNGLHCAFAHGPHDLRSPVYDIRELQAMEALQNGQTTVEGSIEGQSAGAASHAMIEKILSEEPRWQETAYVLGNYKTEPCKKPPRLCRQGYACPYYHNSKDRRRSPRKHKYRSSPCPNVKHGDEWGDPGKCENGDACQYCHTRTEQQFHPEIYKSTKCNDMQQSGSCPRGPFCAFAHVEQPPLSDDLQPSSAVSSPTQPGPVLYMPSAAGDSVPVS

B1: chr14:59746188:59746291:-|CDS|ENSG00000139970|unk|FALSE|unique (ssRNA)
RNA: GGGAGUUCUACAGUCCGACGAUCCUGGGUACACCCGGCCCCUCCUUACCAGAUGUGCCUGGGAUAGAGUCUCGUGGCUUAUUUAGUUCUGAUUCUGGAAUAGAGAUGACUCCUGCAGAGUCCACGGAAGUGAACAAGAUCUUACAACAGAGGAUUGAGCAUCA
B2: ENSG00000124766:be:win_2751|3pUTR|ENSG00000124766|bound_else_gene|NA|bound_elsewhere_windowed (ssRNA)
RNA: GGGAGUUCUACAGUCCGACGAUCUUCUCAGUGUGUGUGUUUAUUCCUUAUAGGUGUAAAUGAGAAGACGUGUUUUUUUCCUUCACCGAUGCUCCAUCCUCGUAUUUCUUUUUCCUUGUAAAUGUAAUCAGAUGCCAUUUUAUACAACAGAGGAUUGAGCAUCA
B3: chr5:128187618:128187661:+|3pUTR|ENSG00000064651|msi1_unk|total|mutant (ssRNA)
RNA: GGGAGUUCUACAGUCCGACGAUCUCCUUUAUAAGUCAUUAAAAUAAUGUUUCAUCAAAUGGUUAAAUGGACCACUGGUUUCUCCGAGAAAUGUUUUCCGGCUUAAUUCAUUCAAUUGUCAAGUACACUCCGUCUUAAUACACUCAACAGAGGAUUGAGCAUCA
B4: chr9:104535772:104536723:-|CDS|ENSG00000204246|control|control|control (ssRNA)
RNA: GGGAGUUCUACAGUCCGACGAUCGACAAGCUCAUUUCUCUGUUUUAUGGGGUAGUGACACCCAUGCUGAAUCCUAUACUCUAUAGCUUGAGAAAUAAGGAUGUAAAAGCUGCUGUAAAAUAUUUGCUGAACAAAAAACCAAUUCAACAGAGGAUUGAGCAUCA
B5: chr17:43640388:43641946:-|three_prime_utr|ENSG00000005102|control|control|control (ssRNA)
RNA: GGGAGUUCUACAGUCCGACGAUCCCUCUCCACAUCUUUCCCUGACUCUUGGAUAUGAAACUGCCCAGCAUUCCUGGGAGUCUUAGGAUUUUCUAGGAAGUUCUGUCCAGCCUCUUAGCAGCCUCUUCCCUAGGGCCUUUGCUCCAACAGAGGAUUGAGCAUCA
B6: chr17:58090057:58090109:+|3pUTR|ENSG00000264364|msi1_unk|FALSE|overlapping (ssRNA)
RNA: GGGAGUUCUACAGUCCGACGAUCGGGUAGGAUUAGCUUGAAUCUUUUUUUUCUUUACAUUUUUCUCCUGUCUGCUCCCUGCUUAGCCCUCAGUUUCCUCAUUCCUCUGGAGUUCUCUUAGAGCAGCCCCUGUUGUUAGUUGGCCAACAGAGGAUUGAGCAUCA
B7: chr5:149847740:149847841:+|3pUTR|ENSG00000155846|unk|FALSE|unique (ssRNA)
RNA: GGGAGUUCUACAGUCCGACGAUCAUUGAACAAAGCUGCUUCUGUCUGUGAGUUUCCAUGGUGUUGACGUUCCACUGCCACAUUAGUGUCCUCGCUUCCAACGGGUUGUCCCGGGUGCACCUCGAAGUGCCGGGUCCGUCACCCCAACAGAGGAUUGAGCAUCA
B8: chr1:113706032:113706133:-|CDS|ENSG00000116793|unk|FALSE|unique (ssRNA)
RNA: GGGAGUUCUACAGUCCGACGAUCCAAUGCCUAUCAGCAAGGAGUAGGUUAUCAGAUGCUGGGAAAUGUUGUCACUAUUGGAUUAGCAUUUUUUCCAUUCUUACAUCGACUUUUCCGUGAGAAGAGCCUUGACCAACUAAAGUCCAACAGAGGAUUGAGCAUCA
B9: ENSG00000051108:stop:overlap|stop_codon|ENSG00000051108|stop_codon|NA|stop_codon (ssRNA)
RNA: GGGAGUUCUACAGUCCGACGAUCAUGGGUGGCUUCAGCUUUCCUGGUUCCAGCAGAUAUAUGCACGACAGUACUACAUGCAAUAGAAGGCACUGAUCCUGAAACUGAAGACCCCAACCACCUCCCUCCAGACAGGGAUGUACUCAACAGAGGAUUGAGCAUCA
B10: ENSG00000070961:be:win_1101|CDS|ENSG00000070961|bound_else_gene|NA|bound_elsewhere_windowed (ssRNA)
RNA: GGGAGUUCUACAGUCCGACGAUCAAAACUGGCUGUUCAGAUUGGCAAAGCAGGUCUGUUGAUGUCUGCCAUCACAGUUAUCAUUCUAGUAUUAUAUUUUGUCAUUGACACCUUCUGGGUUCAGAAAAGACCAUGGCUUGCUGACAACAGAGGAUUGAGCAUCA
B11: ENSG00000070961:be:win_1501|CDS|ENSG00000070961|bound_else_gene|NA|bound_elsewhere_windowed (ssRNA)
RNA: GGGAGUUCUACAGUCCGACGAUCCCUGAACCAGAAGCUAUUCCACCAAAUAUUUUGUCCUAUCUUGUAACAGGAAUUUCUGUGAAUUGUGCUUAUACAUCAAAAAUAUUGCCACCAGAGAAAGAGGGUGGAUUACCUCGUCACCAACAGAGGAUUGAGCAUCA
B12: ENSG00000198589:be:win_4751|CDS|ENSG00000198589|bound_else_gene|NA|bound_elsewhere_windowed (ssRNA)
RNA: GGGAGUUCUACAGUCCGACGAUCGCACUUUAACUACGGCAUCAGUGGAAGAAUCUGAAAGCACAUCAUCUGCUCGAAGGAGGGACUCAGGCAUUGGGGAAGAAACAGCCACUGGUUUAGGAAGCCAUGUGGAAGUAACUCCUCCAACAGAGGAUUGAGCAUCA
B13: ENSG00000150753:stop:overlap|stop_codon|ENSG00000150753|stop_codon|NA|stop_codon (ssRNA)
RNA: GGGAGUUCUACAGUCCGACGAUCUCAGGAUGAUGAAAUUGGAGAUGGAACCACAGGAGUGGUUGUCCUGGCUGGUGCCUUGUUAGAAGAAGCGGAGCAAUUGCUAGACCGAGGCAUUCACCCAAUCAGAAUAGCCGAUGGCUACAACAGAGGAUUGAGCAUCA
B14: chr1:119916538:119916684:-|CDS|ENSG00000134250|unk|total|mutant (ssRNA)
RNA: GGGAGUUCUACAGUCCGACGAUCAGAGACACCUCUGUUUCUUGCUGCCCGGGAGGGGAGCUAUGAAGCAGCCAAGAUCCUGUCCGACCAUUUUGCCAAUCGAGACAUCACAGACCAUAUGGAUCGUCUUCCCCGGGAUGUGGCCAACAGAGGAUUGAGCAUCA
B15: chr1:100520103:100520216:+|3pUTR|ENSG00000079335|unk|FALSE|unique (ssRNA)
RNA: GGGAGUUCUACAGUCCGACGAUCUUACACAUGUGCCUACAUAGACACACCAAGAAGUGGAUGUAUAUAAUAUAGAAAGUAUAUAGCAAAGUAAUUUUACUCUGAUAAUAAAAAUUGUUUGACAUGUAUUUUGUUAUGAAUAGUCAACAGAGGAUUGAGCAUCA
B16: chr4:48498090:48498191:-|3pUTR|ENSG00000075539|msi1|FALSE|bound_elsewhere (ssRNA)
RNA: GGGAGUUCUACAGUCCGACGAUCAGGAAGCCUGAAGACUGACUACCAAAACAUGCAAUAUACUUAUUCACUGUCUAAGUCUGUAGUAUAACAUGAACUGGAGUCUCUAUCCUUUUCUAAAAUCGCAUUUUGUAAGAAAAGAAACAACAGAGGAUUGAGCAUCA
B17: chr14:101901747:101901860:+|CDS|ENSG00000078304|unk|FALSE|unique (ssRNA)
RNA: GGGAGUUCUACAGUCCGACGAUCCUGGCCAAAGACUCACAGUCCAAAAGAAGUAAUGUUCUUAAACGAAUUAGAAGAGAUUUUAGAUGUCAUUGAACCAUCAGAAUUUGUGAAGAUCAUGGAACCCCUCUUCCGGCAGUUGGCCAACAGAGGAUUGAGCAUCA
B18: ENSG00000124766:be:win_2851|3pUTR|ENSG00000124766|bound_else_gene|NA|bound_elsewhere_windowed (ssRNA)
RNA: GGGAGUUCUACAGUCCGACGAUCUAAUCAGAUGCCAUUUUAUAUGUGGACGUAUUUAUACUGGCCAAACAUAUUUUUUCUUUUGUCCCUUUUUUUCUUUCCUUUCUUUUUACUUCCUUUAUUUCUUUAUUCCUUCCUUUUCCUCAACAGAGGAUUGAGCAUCA
B19: chr11:101890673:101891278:-|three_prime_utr|ENSG00000187151|control|control|control (ssRNA)
RNA: GGGAGUUCUACAGUCCGACGAUCGUAAUGCAAGUUCUACAAUGAUAAUAUAUUAAAGAUUUUUAAAAGUUUAUCUUUUCACUUAGUGUUUCAAACAUAUUAGGCAAAAUUUAACUGUAGAUGGCAUUUAGAUGUUAUGAGUUUCAACAGAGGAUUGAGCAUCA
B20: chr1:93346344:93346492:+|5pUTR|ENSG00000117505|unk|FALSE|unique (ssRNA)
RNA: GGGAGUUCUACAGUCCGACGAUCGCCGCUCAAAUUUCCGGACCACCGCGCUUUCCCCUCCUCAGCCUGGGCUGUGCUCUCUCUAGAAUCCUCGGGCCCCCACUUUCUUCCCAAACUCAUCCUAAAUCUCUCACACACGCGAGUCAACAGAGGAUUGAGCAUCA
B21: chr13:45969211:45969312:-|CDS|ENSG00000123200|unk|FALSE|unique (ssRNA)
RNA: GGGAGUUCUACAGUCCGACGAUCGUCCCUGACCGUACAGAGGUGACAGAAGCAGAGCAUACUGCCACCGCCACGACUCCUGGUAGUACCCCUUCUCCUCUAUCUUCUCUUCUUCCUCCUCCACCGCCUGUGGCUACUGCCACUCAACAGAGGAUUGAGCAUCA
B22: chr5:72990507:72990614:+|CDS|ENSG00000157107|unk|FALSE|unique (ssRNA)
RNA: GGGAGUUCUACAGUCCGACGAUCGUAUGGGAUGUAUUCAAAACAUCUACAGAGAAAUUAGCAAAUUGUCACUUGGAUCUUGUUAGAAAAUUACAAGAAUUAAUAAAGGAAGUUCAGAAGUAUGGAGAAGAACAAGUAAAGUCUCAACAGAGGAUUGAGCAUCA

This is one part of the list.

The experiment deals with T1, UNK ZnF1-6 (called full-length). As to the kind of experiment: nsRBNS (natural sequence RNA bind-n-seq); RBNS binding buffer (assumed for nsRBNS): 25 mM Tris pH 7.5, 150 mM KCl, 3 mM MgCl2, 0.01% Triton X-100, 500 ug/ml BSA, 20 U/ml SUPERase-In, 4 C; UNK is unkempt and MSI1 is Musashi-1; names of the RNAs are library labels; protein concentration not given here; high values mean tight binding.
With B1, the binding signal worked out at 0.651 enrichment R.

As to B2, the binding signal amounted to 0.717 enrichment R.

Regarding B3, the binding signal came out at 0.678 enrichment R.

On to B4, for which the binding signal came to 0.451 enrichment R.

B5 had a binding signal of 0.973 enrichment R.

B6 displayed a binding signal of 4.34 enrichment R.

In the case of B7, the binding signal was 0.845 enrichment R.

With B8, the binding signal turned out to be 0.479 enrichment R.

The molecule B9 gave a binding signal of 0.715 enrichment R.

With B10, the binding signal stood at 5.64 enrichment R.

For B11, the binding signal amounted to 0.435 enrichment R.

Turning to B12, the binding signal turned out to be 0.511 enrichment R.

In turn, B13 returned a binding signal of 1.35 enrichment R.

Turning to B14, the binding signal was 0.755 enrichment R.

Turning to B15, the binding signal stood at 1.45 enrichment R.

Molecule B16 gave a binding signal of 0.311 enrichment R.

On to B17, for which the binding signal is 0.772 enrichment R.

B18 had a binding signal of 8 enrichment R.

As for B19, the binding signal was found to be 5.03 enrichment R.

B20 gave a binding signal of 1.62 enrichment R.

Molecule B21 showed a binding signal of 1.84 enrichment R.

In turn, B22 had a binding signal of 3.86 enrichment R.
